Measured values from PubChem BioAssay AID2675 (National Center for Advancing Translational Sciences (NCATS), 2010).
Screen size: about 280,000 compounds; about 100 (0.036%) were called active. Inconclusive results, whose numbers are uncertain, are shown with a selection of clear calls. Calls follow the shape of the dose curve; as a rule, active = well fitted inhibition curve with a large enough effect in the signal ratio, with a control signal flat (not every such curve was filed as active); inconclusive = small, poorly fitted or top-dose-only effect, or effect the other way, or a change in a side signal; inactive = no such curve, though single readings can be large or run the other way; the % refers to the signal ratio. Potencies beside an inconclusive call are fits to weak or partial responses and may not hold up. “Side channel” marks fits to a control or component signal instead of the main read-out.

What follows are molecules tested against Muscleblind-like protein 1 (Homo sapiens) (UniProt Q9NR56) (assay: qHTS Assay for Inhibitors of MBNL1-poly(CUG) RNA binding). Details: TR-FRET MBNL1-His/biotin-(CUG)12 binding, 665/545 ratio; activity change, negative = inhibition: at 57.5 µM (top of the series).
Outline: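 Compound titration spanned 92 nM–58 uM against the MBNL1-His/biotin-(CUG)12 complex. After 60 min at room temperature with 5 nM streptavidin-XL665 and 0.055 ng/ul terbium anti-His, ratiometric 665/545 nm emission (Ex 340 nm) normalized to controls.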
% is scaled to controls: 0 for no effect and ±100 for the full control effect; potency is read from the fitted curve at half-maximal effect; tags tell the direction and shape of the fitted curve or compound fluorescence and quenching.

Chain of UniProt Q9NR56 (Q9NR56 whole entry, looked up): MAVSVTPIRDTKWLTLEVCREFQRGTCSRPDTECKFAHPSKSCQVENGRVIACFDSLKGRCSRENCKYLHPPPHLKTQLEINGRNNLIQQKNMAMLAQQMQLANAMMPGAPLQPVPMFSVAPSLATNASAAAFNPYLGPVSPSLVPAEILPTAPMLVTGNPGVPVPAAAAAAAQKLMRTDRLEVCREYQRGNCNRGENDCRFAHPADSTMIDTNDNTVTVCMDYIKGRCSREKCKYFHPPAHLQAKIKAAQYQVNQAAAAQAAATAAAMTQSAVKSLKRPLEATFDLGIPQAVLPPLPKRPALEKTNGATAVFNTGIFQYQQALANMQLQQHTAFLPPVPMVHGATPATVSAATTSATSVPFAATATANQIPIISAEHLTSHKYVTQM

| Structure (SMILES) | Potency | activity change, negative = inhibition |
| --- | --- | --- |
| CCOc1ccc(C(=O)NCc2cccnc2)cc1[N+](=O)[O-] | inconclusive: 25.1 µM [quencher, side channel, partial curve] | – |
| Cc1nnc(SCC(=O)N2CCCc3ccccc32)[nH]c1=O | inconclusive: 3.98 µM [quencher, side channel, single point] | – |
| COc1ccc2nc3c(c(-c4ccccc4)c2c1)CCC3 | – | inactive: 28.1% |
| COc1ccc(-c2cc(C(F)(F)F)n3nc(C(=O)N4CCOCC4)c(Cl)c3n2)cc1 | inconclusive: 3.98 µM [quencher, side channel, single point] | – |
| Cc1cc(C)cc(NC(=O)NN2C(C)CCCC2C)c1 (centres undefined) | inconclusive: 15.8 µM [quencher, partial curve] | – |
| CCOc1ccccc1N1CCN(Cc2cccc(OC)c2O)CC1 | – | inactive: -4.21% |
| O=C(NNC(=O)c1ccc([N+](=O)[O-])cc1C(=O)O)c1ccncc1 | inconclusive: 10 µM [quencher, side channel, partial curve] | – |
| Cc1ccc2c(c1)n([O-])c1c([n+]2=O)CCCC1 | inconclusive: 15.8 µM [quencher, side channel, partial curve] | – |
| Cc1ccc(N/N=C2\COC(C)(C)CC2=O)cc1 | – | inconclusive: 23.5% [phenotype inactive] |
| O=C(Nc1ccccc1N1CCN(C(=O)c2ccccc2)CC1)c1cccc(Cl)c1 | – | inactive: -10.9% |
| O=[N+]([O-])c1ccc2c(c1)/C(=N\O)c1ccccc1-2 | inconclusive: 6.31 µM [quencher, side channel, partial curve] | – |
| COc1ccccc1/C=C/C=N/NC(=O)CCC1C(=O)NN=C1C (centres undefined) | – | inconclusive: 18.2% [phenotype inactive] |
| O=C(CSc1nc2c(c(=O)n1-c1ccc(Cl)cc1)SCC2)NCC1CCCO1 (centres undefined) | inconclusive: 14.1 µM [quencher, side channel, partial curve] | – |
| CCN(CC)C(=O)C1CCCN(Cc2sccc2C)C1 (centres undefined) | – | inactive: -19% |
| COc1ccc(-n2c(=O)c3c4c(sc3n3c(=S)[nH]nc23)CCCC4)cc1 | inconclusive: 8.91 µM [quencher, side channel, partial curve] | – |
| Cc1ccc(S(=O)(=O)NCC(=O)Nc2ccc3c(c2)OCCO3)cc1 | inconclusive: 0.355 µM [quencher, side channel, full curve, poor fit] | – |
| COc1ccc(CC2(CO)CCN(CC3=Cc4cc(Cl)ccc4OC3)CC2)cc1 | – | inactive: 5.06% |
| CC(=O)Nc1nnc(CSCc2ccc(F)cc2)s1 | – | inactive: -10.5% |
| Cc1ccc2nc(N3CCN(C)CC3)c(C#N)cc2c1 | inconclusive: 22.4 µM [quencher, side channel, single point] | – |
